Reference: PubChem BioAssay AID1477 (National Center for Advancing Translational Sciences (NCATS), 2009)
Fewer than 10 of roughly 230,000 compounds were called active. Inconclusive means that the source gave no clear call. Such entries were picked first, then a sample of the others. The call rests on the fitted dose curve; in most records, active means well fitted curve in the direction sought with a large enough effect; inconclusive means small, poorly fitted or top-dose-only effect, or effect the other way, or another doubt; inactive means no such curve, though single readings can be large or run the other way. No potency is given beside an inconclusive call; the fits are too rough.

target: Runt-related transcription factor 1 (Homo sapiens) + Core-binding factor subunit beta (Homo sapiens) (UniProt Q01196+Q13951); test: qHTS Assay for Compounds Blocking the Interaction Between CBF-beta and RUNX1 for the Treatment of Acute Myeloid Leukemia; settings: AlphaScreen CBFb-His/RUNX1-biotin binding, biochemical; activity, negative = inhibition: at 59.8 µM (top of the series) unless noted; on activity, negative = inhibition: % of control where 0% means no effect
UniProt Q01196, sequence (Q01196 whole entry, looked up): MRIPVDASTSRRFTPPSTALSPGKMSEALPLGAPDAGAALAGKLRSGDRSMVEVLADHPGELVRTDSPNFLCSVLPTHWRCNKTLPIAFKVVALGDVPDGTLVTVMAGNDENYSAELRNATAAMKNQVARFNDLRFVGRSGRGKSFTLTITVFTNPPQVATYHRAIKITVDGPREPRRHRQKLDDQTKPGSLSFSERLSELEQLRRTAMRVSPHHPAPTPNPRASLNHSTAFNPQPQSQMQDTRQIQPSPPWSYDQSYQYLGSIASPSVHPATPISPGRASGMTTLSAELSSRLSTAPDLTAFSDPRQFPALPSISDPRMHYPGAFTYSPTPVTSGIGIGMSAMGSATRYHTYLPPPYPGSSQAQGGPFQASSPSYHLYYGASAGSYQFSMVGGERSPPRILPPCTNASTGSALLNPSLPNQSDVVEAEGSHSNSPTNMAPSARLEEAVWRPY
UniProt Q01196, sequence (Q13951 whole entry, looked up): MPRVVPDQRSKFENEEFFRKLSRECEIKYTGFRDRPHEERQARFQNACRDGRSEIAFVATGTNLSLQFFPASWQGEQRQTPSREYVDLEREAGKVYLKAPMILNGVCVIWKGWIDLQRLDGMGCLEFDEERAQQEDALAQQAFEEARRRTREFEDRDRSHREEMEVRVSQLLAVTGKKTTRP
Text: NIH Chemical Genomics Center [NCGC]
NIH Molecular Libraries Probe Production centers Network [MLPCN]
Assay Submitter (PI): Paul Liu
Core Binding Factor (CBF) abnormalities are associated with 20-25% of all acute myeloid leukemias (AML), of which 5-10% are further sub classified as acute myelomonocytic leukemia with eosinophilia, also known as M4Eo in the FAB classification scheme. This subtype of leukemia is usually associated with chromosome 16 inversion (p13:q22). Chromosome 16 inversion results in formation of the fusion oncogene CBFB-MYH11, which encodes the fusion protein CBF-beta-SMMHC.
It has been hypothesized that the interference of CBF-beta and RUNX1 binding could have therapeutic implications for patients with CBF mediated leukemias. We developed a CBF-beta and RUNX1 binding assay in AlphaScreenTM format and optimized it for high throughput screening to search for inhibitors. The goal of this project is to screen MLPCN's compound collection (MLSMR) for identifying the inhibitors of the interaction between CBF-beta and RUNX1 proteins as research probes. If these probes work well in the animal models, the ultimate goal of this project is to development a new drug treatment for this disease.
This assay can not be used to assess how apparent inhibitors interfere with protein binding, and whether inhibitors specifically bind to either protein. Disruption of this protein-protein interaction, through any mechanism, is the intended target activity.
NCGC Assay Protocol Summary:
Step, Parameter, Description
(1) Reagent, 3 uL CBFb-His/RUNX1-biotin mix incubated together for 20 minutes at room temperature (30 nM each)
(2) Compound or control, 23 nL compound stock solution
(3) Incubation, 15 minutes at Room temperature
(4) Reagent, 1 uL 50 ng each of beads (Nickel beads and streptavidin beads)
(5) Incubation, 90 minutes at Room temperature
(6) Detection, Excitation=365 nm Emission=440 nm, Envision reader in AlphaScreenTM mode
Keywords: MLSMR, MLPCN, NIH Roadmap, qHTS, NCGC, Core binding factor, CBF, CBF-beta, Acute myeloid leukemia

SMILES | Potency | activity, negative = inhibition
Cc1cc(C)c2ccc(C(=O)O)nc2c1O | inconclusive [inhibitor, single point] | –
Cc1ccc(C(=O)NN2C(=O)/C(=C/c3cccn3C)SC2=S)cc1 | inconclusive [inhibitor, partial curve] | –
CC(C)(C)Cn1c(=O)[nH]c(=O)c2cc([N+](=O)[O-])cnc21 | – | inactive: -2.92%
CCCCNc1nc2ccccc2n1CC(=O)N1CCc2ccccc2C1 | – | inactive: 5.08%
Cc1c(C#N)c(NC(=O)CCl)n(Cc2ccc(F)cc2)c1C | inconclusive [inhibitor, single point] | –
C=CC1CC=CCC1 (configuration not stated) | – | inactive: 19.2% [at 21.7 µM]
O=C(COC(=O)Cc1cn2ccsc2n1)Nc1nc2ccccc2s1 | – | inactive: -4.27%
CCN(CC)c1ccc(NC(=S)NC(=O)Cc2ccccc2)cc1 | inconclusive [inhibitor, single point] | –
Cc1c(Cc2ccccc2)c(NCCCO)n2c(nc3ccccc32)c1C#N | inconclusive [activator, partial curve] | –
O=C(O)c1cnc2ccccc2n1 | – | inactive: -1.23%
O=C(OC(C(=O)Nc1ccc([N+](=O)[O-])cc1Br)c1ccccc1)c1ccccc1 (configuration not stated) | inconclusive [inhibitor, single point] | –
Cc1ccc(-c2cc(C(=O)Nc3ccccn3)c3ccccc3n2)o1 | inconclusive [inhibitor, single point] | –
Cc1cc(C)n(-c2nc3ccccc3nc2N2CCCC2)n1 | – | inactive: 9.89%
O=C1Nc2cc(Cl)c(Cl)cc2N2CCNC[C@H]12 | inconclusive [activator, partial curve, poor fit] | –
Cc1cc(OCC(=O)Nc2cccc(S(=O)(=O)NC3=NCCCCC3)c2)ccc1Cl | – | inactive: 1.27%
COC(=O)NC(=S)Nc1ccc(Oc2ccc(Cl)cc2Cl)c(Cl)c1 | – | inactive: 0.231%
CCCSc1cc(NCCOC(=O)CCC)c([N+](=O)[O-])c2nonc12 | – | inactive: -1.75%
CC(=O)N1c2ccc(N=Cc3cc(Br)cc(Br)c3O)cc2CC1C (configuration not stated) | inconclusive [activator, single point] | –
CC1(C)S[C@H]2C(NC(=O)[C@@H](N)c3ccc(O)cc3)C(=O)N2[C@@H]1C(=O)O (some centres not stated) | inconclusive [activator, partial curve] | –
CCCC[C@@H]1CCCO[C@@](C(=O)NCC2CC2)(C(F)(F)F)C1 | inconclusive [activator, full curve, poor fit] | –
O=S(=O)(c1ccccc1F)N1CCN(C(=S)NCc2ccccc2)CC1 | – | inactive: 4.84%
Cc1ccc(/C=N/N=C/c2ccc(C)cc2)cc1 | – | inactive: -0.445%
NNC(=O)C(Cc1c[nH]c2ccccc12)NC(=O)c1ccccc1 (configuration not stated) | inconclusive [inhibitor, single point] | –
CCOc1ccc2nc(N3CCCN(C(=O)Nc4ccccc4C)CC3)c(C#N)cc2c1 | inconclusive [activator, partial curve] | –

SMILES | Potency | activity, negative = inhibition
N/C(=N\OC(=O)c1ccc(Cl)cc1Cl)c1ccccn1 | inconclusive [activator, partial curve] | –
Cc1cc(NC(c2cccnc2)c2ccc3cccnc3c2O)no1 (configuration not stated) | inconclusive [inhibitor, partial curve] | –
CC(=Nc1ccccc1N)c1c(C)cc(=O)n(O)c1O | inconclusive [inhibitor, partial curve] | –
COC(=O)C1=C(C(=O)OC)[C@@H]2N(C)c3ccc(OC)cc3[C@@]23C[C@@H](C(=O)OC)N(C(C)=O)C3=N1 | – | inactive: 0.197% [at 13.1 µM]
CCc1cccc(C)c1NC(=O)COC(=O)c1c2c(nc3ccccc13)/C(=C\c1cccs1)CCC2 | inconclusive [activator, partial curve] | –
O=C(NC(=S)Nc1ccccc1N1CCCC1)c1ccc(-c2cccc([N+](=O)[O-])c2)o1 | – | inactive: 1.51%
Nc1cc(=O)[nH]c(SCC(=O)N2CCc3ccccc3C2)n1 | inconclusive [inhibitor, full curve] | –
CCCCCCOC(=O)C(C#N)c1nc2ccccc2nc1N1CCCCC1 (configuration not stated) | – | inactive: 15.3%
CC(C)c1ccc(N=c2c([N+](=O)[O-])nn(-c3ccc4c(c3)OCCO4)n2O)cc1 | inconclusive [inhibitor, partial curve] | –
CC(C)(C)c1ccc(CN2C3=NCCCN3c3ccccc32)cc1 | – | inactive: 8.07%
COc1ccc(-c2cn[nH]c2-c2ccc(OCc3ccc(F)cc3)cc2O)cc1OC | inconclusive [inhibitor, single point] | –
Cc1ccc2[nH]c(=O)c3cc(C(=O)N(C)c4ccccc4C)sc3c2c1 | – | inactive: 2.69%
Cc1cc2ccccn2c1C(=O)c1ccc(Cl)c([N+](=O)[O-])c1 | inconclusive [inhibitor, partial curve] | –
CCCCC(=O)Nc1cccc(-c2csc(-c3ccccc3)n2)c1 | inconclusive [activator, single point] | –
c1ccc(C2c3[nH]c4ccccc4c3CCN2Cc2cccn2-c2ccccn2)nc1 (configuration not stated) | inconclusive [inhibitor, single point] | –
CCCCn1c(=O)c(-c2ccccc2)c(O)c2ccccc21 | – | inactive: 6.96%
COc1ccc(CN(C(=O)c2cccs2)c2ccccc2)cc1 | inconclusive [activator, partial curve] | –
O=C(Cc1ccc(F)cc1)N/N=C/c1ccccn1 | – | inactive: -13.8%
CC(C)=NO[C@@H](C)c1cc(-c2c(C)cc(C)cc2C)no1 | inconclusive [inhibitor, single point] | –
COc1cc(C)ccc1OCCOCCOc1c(C)cc(C)cc1Br | inconclusive [activator, single point] | –
CCCCn1cnc2c1c(=O)[nH]c(=O)n2CCCC | – | inactive: -22.6%
N#CC1=C(N)OC2=C(CCC/C2=C/c2ccoc2)C1c1ccoc1 (configuration not stated) | inconclusive [inhibitor, single point] | –
COc1ccc(OC)c(C2C=C(C34CC5CC(CC(C5)C3)C4)NC(=S)N2)c1 (configuration not stated) | inconclusive [inhibitor, full curve] | –
